Biological target: GST-IRβ-C (cytoplasmic domain of IRβ, GST-IR residues 1011-1382) (UniProt P06213 part only)
Assay: pull-down

Sequence of UniProt P06213 (P06213 1011-1382): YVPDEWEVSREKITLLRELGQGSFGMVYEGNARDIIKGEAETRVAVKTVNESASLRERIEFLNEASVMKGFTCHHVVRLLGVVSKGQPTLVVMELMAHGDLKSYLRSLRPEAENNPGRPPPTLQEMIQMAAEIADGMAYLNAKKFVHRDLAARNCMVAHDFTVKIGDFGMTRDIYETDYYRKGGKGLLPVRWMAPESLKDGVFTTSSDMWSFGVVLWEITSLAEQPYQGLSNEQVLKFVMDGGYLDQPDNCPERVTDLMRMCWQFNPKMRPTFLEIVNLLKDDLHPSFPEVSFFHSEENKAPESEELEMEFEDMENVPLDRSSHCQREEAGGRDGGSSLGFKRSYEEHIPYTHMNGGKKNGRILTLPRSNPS

binding result: binds
B1: MAD2 WT (purified recombinant) (natural protein)
chain: not shown

Source: publication PMC5560052 (Cell, 2016)
